# Among all 45,000 compounds or so, about 65 (0.1%) were called active. Calls follow the shape of the dose curve; as a rule, active = well fitted activation curve with a large enough effect; inconclusive = small, poorly fitted or top-dose-only effect; inactive = no such curve, though single readings can be large or run the other way. Some of the results follow.
# Target: Galactocerebrosidase (Homo sapiens) (UniProt P54803)
# Test: A Novel Cell-Based Assay to Identify Small Molecules for B -Galactocerebrosidase; also: 0% is about no effect; nearly all actives have a fitted effect of over 65% in size
# Details: 145M-Twi-hGALC-G270D cells, HMU-beta-Gal fluorescence, 48 h; series mostly up to 57.5 µM; activation: at the top concentration
# Method in brief: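 qHTS, 1536-well; 145M-Twi-hGALC-G270D cells (WT line also made) in DMEM/F12 + 10% FBS; compound incubation on live cells; HMU-β-gal 0.1 mM final, pH 5.2, NaTC; carbonate stop; fluorescence increase = enhanced residual activity.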
# UniProt P54803, sequence (P54803 whole entry, looked up): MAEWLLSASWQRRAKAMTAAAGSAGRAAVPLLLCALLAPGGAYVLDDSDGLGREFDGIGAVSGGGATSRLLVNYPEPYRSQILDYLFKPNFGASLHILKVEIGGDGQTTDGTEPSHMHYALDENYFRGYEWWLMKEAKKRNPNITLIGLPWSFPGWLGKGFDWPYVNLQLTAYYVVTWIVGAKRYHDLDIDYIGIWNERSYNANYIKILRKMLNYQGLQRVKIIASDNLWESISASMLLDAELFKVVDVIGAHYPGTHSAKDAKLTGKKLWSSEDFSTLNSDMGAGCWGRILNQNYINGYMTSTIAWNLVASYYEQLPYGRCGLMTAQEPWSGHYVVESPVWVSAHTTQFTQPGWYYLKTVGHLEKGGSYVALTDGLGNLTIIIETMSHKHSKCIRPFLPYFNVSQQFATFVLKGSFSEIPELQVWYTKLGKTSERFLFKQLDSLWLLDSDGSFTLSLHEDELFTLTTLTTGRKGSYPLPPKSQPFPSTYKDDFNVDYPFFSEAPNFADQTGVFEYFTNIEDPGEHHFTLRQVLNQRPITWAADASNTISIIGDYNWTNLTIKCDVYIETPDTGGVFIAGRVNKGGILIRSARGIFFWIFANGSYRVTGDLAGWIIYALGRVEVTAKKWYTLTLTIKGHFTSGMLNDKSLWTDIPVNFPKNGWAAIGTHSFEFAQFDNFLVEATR
row,SMILES,activation
1,Cc1ccc(-n2nc(C)c3c(C(F)(F)F)cc(-c4cccnc4)nc32)cc1Cl,inactive: -8.57%
2,COc1ccccc1C(=O)Nc1c(C(=O)NC(C)(C)C)oc2ccccc12,inactive: -13.7%
3,COc1ccc(NC2=C(c3ccc(C(F)(F)F)cc3)C(=O)c3ccccc32)cc1,inactive: -15.1%
4,COc1cccc(NC(=O)CN2C(=O)c3ccccc3Sc3ncccc32)c1,inactive: -0.382%
5,Cc1ccc(-c2nc(C)c(CCNC(=O)c3ccccc3Br)s2)cc1,inactive: 8.26%
6,COc1ccc(S(=O)(=O)N2CCN(c3ccccc3OC)CC2)cc1,inactive: -19.4%
7,CCOC(=O)c1ccc(NC(=O)c2cn3c4c(ccc(Cl)c4c2=O)OC(C)C3)cc1 (stereo not given),inactive: -10.2%
8,CCCc1nn2c(=O)cc(COC(=O)CNC(=O)COc3ccc(C)cc3)nc2s1,inactive: -7.61%
9,COc1cc(OC)c(N(C)C(=O)Nc2cn(CC(C)C)c(=O)c3ccccc23)cc1Cl,inactive: -22.3%
10,CCOC(=O)c1sc(NC(=O)c2c(-c3ccccc3)c(-c3ccccc3)nn(C)c2=O)nc1C,inactive: 7.7%
11,CC1CCN(C(=O)CSc2nc(-c3ccc(F)cc3)cc(C(F)(F)F)n2)CC1,inactive: -12%
12,CCCCOC(=O)c1ccc(NC(=O)c2sc3nc(C)cc(C)c3c2N)cc1,inactive: -23.8%
13,O=C(Cn1c(=O)nc(-c2ccccc2)c2ccccc21)Nc1ccc(Cl)cc1F,inactive: -10.2%
14,COc1ccc(NC(=O)C2=C(C)Nc3nc(SCc4ccc(Cl)cc4)nn3C2c2cccc(OC)c2OC)cc1 (stereo not given),inactive: -9.4%
15,Cc1ccc(NC(=O)/C=C/c2ccccc2Cl)cc1Cl,inactive: -17.7%
16,Cc1cc2c(cc1S(=O)(=O)Nc1cc(C(F)(F)F)cc(C(F)(F)F)c1)OCC(=O)N2,inactive: -18.8%
17,Cc1[nH]c(=O)c(C#N)cc1-c1ccc2nccn2c1,inactive: -8.01%
18,COc1ccc(N(C)C(=O)Cn2cc(S(=O)(=O)N3CCN(c4ccccc4F)CC3)c3ccccc3c2=O)c(OC)c1,inactive: -14.3%
19,CCc1ccc(Nc2nc3ccccc3nc2NS(=O)(=O)c2ccccc2)cc1,inactive: -32%
20,Cc1cccc(-n2c(=O)c3ccccc3n(Cc3ccc(F)cc3)c2=O)c1,inactive: -6.48%
21,O=C(NCCSc1c[nH]c2ccccc12)c1ccccc1Cl,inactive: -16.1%
22,COc1ccc(NC(=O)C2CCN(S(=O)(=O)c3c(C)noc3/C=C/c3cccs3)CC2)cc1Cl,inactive: -17.5%
23,Cc1nc2cccnc2n1C1CCN(C(=O)Nc2ccc(Cl)cc2)CC1,inactive: -19.5%
24,CCOc1ccc(-c2c(C)nn3c(C)c(C(=O)NCCc4ccc(C)cc4)cnc23)cc1OCC,inactive: -15.6%
25,CCc1c(C)sc2c1CCN(Cc1ccccc1F)C2c1ccccc1 (stereo not given),inactive: -18.8%

row,SMILES,activation
1,COC(=O)Cc1c(C)c2ccc3c(c2oc1=O)CN(Cc1ccccc1Cl)CO3,inactive: -15.9%
2,COc1ccc2[nH]cc(CCN=C(NC(=O)c3ccccc3OC)Nc3nc(C)cc(C)n3)c2c1,inactive: -6.29%
3,CCc1cc2c(cc3c(=O)n(CC(=O)NCCc4ccc(OC)cc4OC)nc(CC)n32)s1,inactive: -5.37%
4,Cc1ccc(-n2cnnn2)cc1S(N)(=O)=O,inactive: -6.71%
5,Cc1cc2[nH]c(=O)c(=O)[nH]c2cc1S(=O)(=O)N1CCN(c2cccc(Cl)c2)CC1,inactive: -12.6%
6,COC(=O)Cn1c(SCCOc2ccccc2OC)nc2ccccc21,inactive: -6.35%
7,CCCCCCCCOc1ccc(C(=O)c2ccccc2)c(O)c1,inactive: -7.98%
8,CNC(=O)CN1C(=O)COc2ccc(S(=O)(=O)N3CCC(C)CC3)cc21,inactive: 0.974%
9,COCCNC(=O)c1ccccc1NC(=O)c1nsc2ccccc12,inactive: -9.65%
10,Cc1ccccc1Nc1c(-c2ccc(N3CCOCC3)cc2)nc2ccc(Br)cn12,inactive: -16%
11,CCSc1ncc(Cl)c(C(=O)Nc2cccc(Cl)c2)n1,inactive: -9.07%
12,Cc1ccc(NC(=O)c2ccc(NC(=O)CCS(=O)(=O)c3cccs3)cc2)cc1F,inactive: -1.93%
13,COc1cccc(Cn2cc(C(=O)c3ccc(Cl)cc3)c(=O)c3ccccc32)c1,inactive: -8.11%
14,Cc1ccc(NC(=O)CCCc2nc(-c3ccco3)no2)cc1Cl,inactive: -18.6%
15,COc1nccnc1NS(=O)(=O)c1ccc(N)cc1,inactive: -12.9%
16,COc1cccc(NC(=O)C(Cc2ccccc2)N2Cc3ccccc3C2=O)c1 (stereo not given),inactive: -20.2%
17,COc1ccc(-n2nnnc2C2CCN(S(=O)(=O)c3cccc(C(F)(F)F)c3)CC2)cc1,inactive: -0.456%
18,COc1ccc(-n2c(SCC(=O)NCc3ccc(Cl)cc3)nc3ccsc3c2=O)cc1,inactive: -2.37%
19,COc1cccc(-n2c(=O)c3cc(OC)c(OC)cc3n(CC(=O)Nc3ccc(F)cc3)c2=O)c1,inactive: -1.32%
20,COc1ccc(NS(=O)(=O)c2ccc(N3CCCCS3(=O)=O)cc2)cc1Cl,inactive: -12.5%
21,COc1ccc(-c2noc(CCC(=O)N(C)c3cc(Cl)ccc3OC)n2)cc1,inactive: -13.9%
22,CC(C)CCOc1ccc(C(=O)NCC2OCCc3ccccc32)cc1 (stereo not given),inactive: -3.08%
23,CCOc1ccc(Nc2ncnc3c2c(-c2ccccc2)cn3-c2cccc(C)c2)cc1,inactive: -4.52%
24,Clc1ccc(-c2nnn3c2nc(NC2CCCCC2)c2ccccc23)cc1,inactive: -10.2%
25,CCOc1ccc(C(=O)N(Cc2ccc(C(C)C)cc2)Cc2ccco2)cc1,inactive: -9.17%

row,SMILES,activation
1,COc1cc(NC(=O)c2cccc(Cl)c2Cl)ccc1NC(=O)c1cc2ccccc2o1,inactive: -13.3%
2,CCS(=O)(=O)N1CCCc2cc(C(=O)Nc3cccc(C(C)=O)c3)ccc21,inactive: -7.43%
3,CCCc1cnc2c(c1SCC(=O)Nc1ccccc1OCC)c(=O)n(C)c(=O)n2C,inactive: -14.6%
4,CCCn1c2ccc(F)cc2c2nnc(SCCN3CCCCC3)nc21,inactive: -13%
5,CCC(=O)N1CCc2cc(Br)cc(S(=O)(=O)CCC(=O)Nc3cccc(Cl)c3)c21,inactive: -17.2%
6,Cc1cccc(C)c1NC(=O)CN1CCCC1,inactive: -9.23%
7,COc1cccc(Cn2nc(SC)c(S(=O)(=O)c3ccccc3)c2N(C(C)=O)C(C)=O)c1,inactive: -5.95%
8,CCCSCCCNC(=O)c1ccc(C)c(NC(=O)c2nsc3ccccc23)c1,inactive: -17.2%
9,Cc1cc2c(cc1NS(=O)(=O)c1ccc(Br)cc1)n(C)c(=O)c(=O)n2C,inactive: 0.201%
10,COc1cc2c(cc1OC)C(c1cccc(Cl)c1)CC(=O)N2 (stereo not given),inactive: -1.83%
11,N#CCC(=O)NN,inactive: -15.5%
12,COc1ccc(N2CCN(S(=O)(=O)c3ccc(F)c(C(=O)Nc4ccccc4Cl)c3)CC2)cc1,inactive: -15.2%
13,Cn1nc(-c2ccccc2F)c2cc(C(=O)NCc3ccccc3Cl)sc21,inactive: -32.7%
14,COc1ccc(CC(=O)N2CCc3cc(OC)c(OC)cc3C2COc2ccc(F)cc2)cc1 (stereo not given),inactive: -18.9%
15,COc1ccc(OC)c(NC(=O)c2oc(=O)c3ccccc3c2-c2ccccc2)c1,inactive: -6.38%
16,CCOc1ccc(NCc2cccn2-c2nnc(N3CCC(C(=O)NCc4ccccc4Cl)CC3)s2)cc1,inactive: -13.2%
17,CCc1ccc(OCCSc2nc3ccccc3n2CC(=O)N2CCCCC2)cc1,inactive: -35.9%
18,O=C(c1ccc(F)cc1)N1CCc2c([nH]c3ccccc23)C1c1ccc(Cl)cc1 (stereo not given),inactive: -5.18%
19,COc1ccc(Cl)cc1NC(=O)N1CCN(S(=O)(=O)c2ccc3c(ccn3C)c2)CC1,inactive: -4.69%
20,CC(C)(C)OC(=O)N1CCC(c2c(C(=O)NCc3cccs3)cnn2-c2cccc(F)c2)CC1,inactive: -20.2%
21,CCCCNC(=O)c1cccc(NC(=O)c2nsc3ccccc23)c1,inactive: -14.6%
22,COc1cccc(OC)c1C(=O)NCCc1sc(-c2cccc(F)c2)nc1C,inactive: -15.8%
23,COc1ccc(S(=O)(=O)N2CCC(Oc3ccc(-n4cnnn4)cc3)CC2)cc1,inactive: -5.79%
24,COc1cc(/C=C(\C#N)c2nc3ccc(C)cc3[nH]2)ccc1OCc1ccc(C)cc1,inactive: -16.9%
25,CC(N)CCCC(C)(C)O (stereo not given),inactive: -18.2%

row,SMILES,activation
1,CCOc1ccc2c(c1)c(=O)c(C(=O)c1ccc3c(c1)OCO3)cn2Cc1ccc(F)cc1,inactive: 3.13%
2,Cc1nn(-c2nc(-c3ccccc3)cc(C(F)(F)F)n2)c(C)c1Cl,inactive: -12.7%
3,CCc1nn(C(CC)C(=O)NCc2ccc(OC)c(OC)c2)c(=O)c2cc3oc(C)cc3n12 (stereo not given),inactive: -11.1%
4,COc1ccccc1N1CCN(c2ncnc3c2c(-c2ccccc2)cn3-c2cccc(Cl)c2)CC1,inactive: -12.4%
5,Cc1ccc(OCCSc2nc(-c3ccccc3C)nc3cc(=O)[nH]n23)cc1Cl,inactive: -13.5%
6,COc1ccc(C(=O)Nc2ccccc2-c2nc3ccccc3s2)cc1OC,inactive: -6.03%
7,Cc1ccc(C)c(NC(=O)CSc2nccn2-c2cccc(C)c2C)c1,inactive: -4.93%
8,CCc1ccc(C2C(C(=O)Nc3ccccc3OC)=C(C)Nc3c(C(=O)Nc4ccc(C)cc4)cnn32)cc1 (stereo not given),inactive: -12.9%
9,COc1cccc(CNC(=O)c2cnc3c(-c4ccc(F)cc4)c(C)nn3c2C)c1,inactive: -1.05%
10,CC(=O)Nc1ccc(NC(=O)c2nc(S(=O)(=O)Cc3ccc(F)cc3)ncc2Cl)cc1,inactive: -15.8%
11,CCN(C(=O)c1cn(-c2cccc(OC)c2)c(=O)c2ccccc12)c1ccccc1C,inactive: -2.99%
12,COCCc1ccccn1,inactive: 1.3%
13,CCN(CC)CCNC(=O)C1CCN(C(=O)c2cnn(-c3ccccc3)c2-n2cccc2)CC1,inactive: -11.3%
14,Cc1ccc(-n2c(SCc3ccccc3F)nc3[nH]ncc3c2=O)cc1Cl,inactive: -16.3%
15,CCc1cccc(NC(=O)Cn2c(C(=O)OC)cc3sc(Cl)cc32)c1,inactive: -14.3%
16,CCCCOc1ccc(C2c3c(oc4ccc(C)cc4c3=O)C(=O)N2CCCN(C)C)cc1OCC (stereo not given),inactive: 9.21%
17,CC(=O)NCCNC(=O)CCCn1c(=O)[nH]c2ccsc2c1=O,inactive: -1.62%
18,Cc1ccc(NC(=O)CSc2nc(=O)cc(N)n2-c2ccccc2)cc1,inactive: -9.46%
19,CCOC(=O)N1CCc2c(sc3c2C(=O)NC(c2ccc(N(C)C)cc2)N3)C1 (stereo not given),inactive: -14.9%
20,Cc1ccc2nc(NC(=O)CSc3[nH]c(=O)ncc3C)sc2c1,inactive: -21.7%
21,CCOC(=O)c1c(NC(=O)Cc2coc3cc(C)cc(C)c23)sc2c1CCC2,inactive: -16%
22,COCCN(CCOC)S(=O)(=O)c1ccc(C(=O)Nc2sc3c(c2C(=O)OC)CCN(C)C3)cc1,inactive: -22.9%
23,CC(=O)c1ccc(NC(=O)c2cc(C)nn2-c2ccccc2)cc1,inactive: -9.74%
24,CCN(CC)S(=O)(=O)c1cccc(C(=O)Nc2ccccc2C(=O)Nc2ccc(Cl)cc2)c1,inactive: -10.1%
25,Cc1ccc(C)c(NS(=O)(=O)c2cc3c(cc2C)n(C)c(=O)c(=O)n3C)c1,inactive: 3.23%

# Source: PubChem BioAssay AID1159614 (National Center for Advancing Translational Sciences (NCATS), 2016)
